Measured values reported in PubChem BioAssay AID1240 (Sanford-Burnham Center for Chemical Genomics, 2008).
In all, about 50,000 compounds went through this assay and about 800 (1.6%) showed an effect of 50% or more. Some of the results follow.

target: Bcl-2-like protein 10 (Homo sapiens) (UniProt Q9HD36); assay: TR3 peptide-Bcl-B binding displacers, biochemical primary FP assay, phenotype converters (AID 1240); details: GST-Bcl-B / FITC-TR3 peptide fluorescence polarization; stronger effect = higher value; compound at 3.75 mg/L;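 also: 0% = Bcl-B with tracer peptide and DMSO and 100% = tracer peptide lacking Bcl-B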
UniProt Q9HD36, sequence (Q9HD36 whole entry, looked up): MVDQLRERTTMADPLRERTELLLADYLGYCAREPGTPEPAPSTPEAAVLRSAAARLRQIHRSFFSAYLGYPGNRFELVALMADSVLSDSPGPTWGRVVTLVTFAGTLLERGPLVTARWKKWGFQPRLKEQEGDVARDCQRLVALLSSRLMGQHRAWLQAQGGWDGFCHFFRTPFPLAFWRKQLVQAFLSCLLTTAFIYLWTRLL

Row | Compound | displacement [%]
1 | CCSc1nnc(NC(=O)c2ccco2)s1 | 5.8
2 | O=C1NC(=S)N/C1=C/c1ccc(O)c(Cl)c1 | 16.5
3 | Cc1cc(C)nc(SCC(=O)N2CCCCC2)n1 | -5.9
4 | Cc1cc2ncn(C(=O)c3ccc([N+](=O)[O-])c(C)c3)c2cc1C | 12.6
5 | COc1cc(/C=C2/SC(=S)NC2=O)cc(Cl)c1O | -1.9
6 | COc1cc(/C=N\N2CCN(c3ccccc3)CC2)cc(Br)c1O | -7.7
7 | O=C(Nc1ccc2nn(-c3ccc(F)cc3)nc2c1)c1cc(Cl)ccc1Cl | -5.8
8 | Cc1cccc(NC(=O)c2sc3ccccc3c2Cl)c1C | -1.5
9 | Cc1ccc(N=Cc2ccc(O)c(O)c2)c(C)c1 | -7.2
10 | Cc1ccc(-c2ccccc2)n1-c1ccc(Cl)c(C(=O)O)c1 | -41.6
11 | O=C1NC(=O)C(=Cc2ccccc2OCc2ccccc2F)C(=O)N1 | 15.2
12 | CC1(C)CC(NC(=O)C(=O)Nc2ccc3c(c2)OCO3)CC(C)(C)N1 | -0.4
13 | O=C(c1ccc(-c2ccccc2)cc1)N1N=C(c2ccccc2)CC1(O)C(F)(F)F (stereo not given) | -13.4
14 | O=C(CSc1nc2ccccc2[nH]1)NC(c1ccccc1)c1ccccc1 | -1.7
15 | CC1CCc2c(sc3nc(-c4cccs4)oc(=O)c23)C1 (stereo not given) | 3
16 | O=S(=O)(NC1CCCCCC1)c1ccc(F)cc1 | -1.9
17 | COc1cc(OC)cc(C(=O)N2CCN(CCCc3ccccc3)CC2)c1 | -7.8
18 | COc1ccc(NC(=O)CCN2C(=O)/C(=C/c3ccc(F)cc3)SC2=S)cc1 | 12.3
19 | COCCNC(=O)C(=O)Nc1ccc(C(C)C)cc1 | -13
20 | Cc1ccc(OCc2nc(-c3cccc([N+](=O)[O-])c3)no2)c(Br)c1 | -0.5
21 | COc1ccc(-c2cc(C(=O)N3CCCC3)c3ccccc3n2)c(OC)c1 | 2.1
22 | CC(C)(C)c1ccc(C(=O)NNC(=O)C(=O)Nc2ccccc2)cc1 | -9.3
23 | CS(=O)(=O)N(CC(=O)NCc1cccnc1)c1ccc(Oc2ccccc2)cc1 | 0.4
24 | CC1(C)CC(=O)c2nc(NC(=O)CSC(=O)c3ccccc3)sc2C1 | 11.1

Row | Compound | displacement [%]
25 | COC(=O)c1ccccc1N(Cc1ccccc1)S(=O)(=O)c1ccc(OC)cc1 | 10.9
26 | O=C(NC(=S)Nc1cccc(-c2nc3cc(Cl)ccc3o2)c1)c1ccco1 | 12.6
27 | CCOc1ccc(C(=O)NCCc2ccccc2)cc1 | 5.2
28 | NS(=O)(=O)c1cccc(NC(=O)c2cccnc2)c1 | -12.7
29 | COc1ccc(Br)cc1/C=C/C(=O)Nc1ccc(NC(=O)c2ccccc2)cc1 | 2.7
30 | Cc1c(C(=O)NC2CCSC2=O)cccc1[N+](=O)[O-] (stereo not given) | -3.2
31 | CCNC(=O)C1COc2ccccc2O1 (stereo not given) | 3.8
32 | CCOc1cc(/C=C2\C(=O)NN(c3ccccc3)C2=O)cc([N+](=O)[O-])c1O | 20.6
33 | CCOC(=O)C1=C(C)N=c2s/c(=C/c3cc(Cl)c(OCC(=O)O)c(OC)c3)c(=O)n2C1c1ccccc1Cl (stereo not given) | 32.4
34 | COc1ccc(CNC(=O)C(=O)Nc2ccccc2F)cc1 | -6.6
35 | CCCC(=Nc1ccc(OC)cc1)C1=C(O)CC(C)(C)CC1=O | -0.9
36 | O=C(NC1CCCCC1)O/N=C\c1ccccc1Cl | 12.6
37 | CC1CCN(CC(O)COc2ccc(OCC(O)CN3CCC(C)CC3)cc2)CC1 (stereo not given) | 4.5
38 | O=C(O)CCCCCN1C(=O)C(=O)/C(=C(/O)c2ccc([N+](=O)[O-])cc2)C1c1ccc2c(c1)OCO2 (stereo not given) | -1.1
39 | Cc1c(C(=O)OC(C)C)sc(NC(=O)c2cc(Cl)ccc2Cl)c1C(=O)OC(C)C | 10
40 | O=C(/C=C/c1ccccc1)Nc1ccc(S(=O)(=O)N2CCOCC2)cc1 | -13.6
41 | O=C(Nc1ccc(O)c(-c2nc3ccccc3o2)c1)c1ccc(-c2ccc([N+](=O)[O-])cc2)o1 | -0.4
42 | O=C(O)c1ccccc1/C=N/n1cnnc1 | 7.6
43 | O=C(Nc1ccc(Cl)cc1)Nc1ccc([N+](=O)[O-])cc1Br | 3.9
44 | O=C(NCCN1CCOCC1)c1ccc(F)cc1 | -7.8
45 | CCn1nnnc1-c1ccc(OC)c(S(=O)(=O)Nc2cccc(C(F)(F)F)c2)c1 | 9
46 | COC(=O)C1=CN(Cc2ccc(C)cc2)C=C(C(=O)OC)C1c1ccc(OC(F)(F)F)cc1 | 4.7
47 | Cc1ccc(/C=N/NC(=O)c2ccc(Oc3ccc(C(=O)N/N=C/c4ccc(C)o4)cc3)cc2)o1 | 3.9
48 | Cc1ccc(Cc2cnc(NC(=O)Cc3ccccc3)s2)cc1 | 3.9

Row | Compound | displacement [%]
49 | O=c1oc(-c2ccc(Cl)cc2Cl)nc2ccccc12 | 11.4
50 | CC(C)c1ccc(CNC(=O)CSc2nc3ccccc3[nH]2)cc1 | -8.9
51 | CC(C)C(=O)NC(=S)N1CCOCC1 | 9
52 | O=C(O)c1cc(-c2ccc(Cl)cc2)nc2ccc(Br)cc12 | -8
53 | Cc1ccc(CN2CCN(N=Cc3sccc3C)CC2)c(C)c1 | -5.8
54 | O=C(Nc1ccc(Cl)cc1)Nc1nnc(COc2ccc(Cl)cc2Cl)s1 | 2.4
55 | CCn1c2ccccc2c2cc(CN3CCN(Cc4cc(OC)c(OC)cc4[N+](=O)[O-])CC3)ccc21 | 21.1
56 | CC(=O)OCCN1C(=O)c2ccc(Oc3cccc(Oc4ccc5c(c4)C(=O)N(CCOC(C)=O)C5=O)c3)cc2C1=O | 4.4
57 | CCOC(=O)COc1ccc(C=Nc2ccc3[nH]c(=O)[nH]c3c2)cc1OC | 12.1
58 | CCNC(=O)/C(C#N)=C/c1ccc(C(C)(C)C)cc1 | 1.1
59 | CCOc1cccc(C(=O)Nc2nnc(C)s2)c1 | 9.5
60 | Clc1ccc(Cl)c(OCCOCCN2CCOCC2)c1 | 12.6
61 | COc1ccc(C(C)NC(=O)CN(c2ccc(OC)cc2OC)S(=O)(=O)c2ccccc2)cc1 (stereo not given) | -12.5
62 | Cc1sc2ncnc(Nc3cccc(Cl)c3)c2c1C | -5.7
63 | O=C(NC1CCCC1)c1cc(-c2ccc(Cl)cc2)nc2ccccc12 | -0.9
64 | Cc1ccc(C(=O)c2sc3nc4c(cc3c2N)CCC4)c(C)c1 | -7.9
65 | CCOc1cc(OCC)cc(C(=O)Nc2ccc(-c3nc4ncccc4o3)cc2)c1 | 0.6
66 | COc1ccc(Cl)cc1C(=O)Nc1ccc(I)cc1Cl | 0.4
67 | O=C(Nc1ccc(Br)c(Cl)c1)C(c1ccccc1)c1ccccc1 | 7.6
68 | COc1ccc(S(=O)(=O)N2CCN(C(C)C)CC2)cc1 | 10
69 | C=CCOc1c(Br)cc(/C=C2\C(=O)NC(=O)N(c3ccccc3)C2=O)cc1OC | 15.7
70 | CC(C)(C)c1csc(NC(=O)c2ccc(Cl)c([N+](=O)[O-])c2)n1 | 2.9
